Assay results taken from the supplement of paper PMC11417369.
± gives the standard deviation of the averaged measurements. This is one part of the list.

test system: PfAP2-G AP2 domain (GST-tagged); assay: gcPBM binding intensity (ln(normalized median fluorescence intensity)); higher = stronger DNA binding
Method in brief: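 Alexa488 anti-GST antibody, scanned at 488 nm, detected GST-tagged P. falciparum DNA-binding domains that had been expressed in E. coli and incubated for 1 h on an Agilent 4 × 180k array. The array carried primer-extended double-stranded 36-bp intergenic genomic probes and negative controls. Binding intensity is the highest Masliner-normalised natural-log median intensity across replicate spots of either orientation of each probe.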

| Sequence | gcPBM binding intensity (ln) |
| --- | --- |
| TTTTTTTTTCTGAATTTATAATTCAAAAATATATAT [CACACA_negctrl_site300] | 9.7 ± 0.057 |
| TTAAAATATGTAGCTACACACACATAAACAAAATAA [CACACA_site8244] | 10.2 ± 0.14 |
| TAATTATAATAATAACGTACATATATAAAATGGTGA [XGTACX_site8434] | 11.3 ± 0.83 |
| GTTTTTTTATAAAATTTTTATATAATTCTTTTATAA [CACACA_negctrl_site1605] | 9.67 ± 0.042 |
| AAAAAAAAAAAAAACACACATACACGCCCACCCATA [CACACA_site3391] | 10.9 ± 0.44 |
| TTTTATTTTTTCTATACATGCATGTCCAATTTTCTT [TGCATGCA_site304] | 10.4 ± 0.31 |
| TTATGGTATAAAAAAATACACACTTATATATATTCT [CACACA_site488] | 9.935 ± 0.007 |
| AATAAAAATATTATATGTACATATTTTAATATATAT [XGTACX_site1259] | 11.2 ± 0.75 |
| TAATAATAAAAAATACGTACATATTATTTATATATG [XGTACX_site853] | 11.4 ± 0.76 |
| CATTTTATTCTATATGCATGTTAAAAAATGTGTTGA [TGCATGCA_site128] | 10 ± 0.2 |
| ATATATAAGAACATATATATTGGAAATATTGAATTT [XGTACX_negctrl_site121] | 9.66 ± 0.18 |
| TTTGCAACATATAAAAGTACAAATAATATATTTATT [XGTACX_site890] | 11 ± 0.71 |
| TTTATTATATGCACACGTACATATAATATATATATA [XGTACX_site4108] | 11.2 ± 0.92 |
| AGCAGTTTTTTTTTTTTTTTTTTTTTTATTAAAAGC [XGTACX_negctrl_site392] | 9.8 ± 0.13 |
| AACTGTAATTTTATACGTACATAAATAATATTATAT [XGTACX_site4277] | 11.7 ± 0.93 |
| ATAATAAATCATCATATTACATTTATCTTTGTTGGA [CACACA_negctrl_site849] | 9.56 ± 0.19 |
| TACTTATTTTTATAGCATTTCACGGAGGTAGTAATA [CACACA_negctrl_site468] | 10 ± 0.13 |
| CAATAAATAATAAATACATGCAAGTATGAAGATATA [TGCATGCA_site859] | 9.71 ± 0.25 |
| TGTTTGATGGTACACGTACACACCTTGCAAATATTT [CACACA_site888] | 11.8 ± 1.2 |

| Sequence | gcPBM binding intensity (ln) |
| --- | --- |
| AATATAAAATAGAAAAATGAAAAAAAAAAAAAGGGT [CACACA_negctrl_site1263] | 10.2 ± 0.31 |
| TATATATATTTTAACACACACATATATATATTTATA [CACACA_site2765] | 9.835 ± 0.007 |
| AAGTATAAAATATTTTGTACTTAAAAAATTATATGG [XGTACX_site2180] | 11.2 ± 0.9 |
| AATAAGAATTAAAAATGTACAAAAAAATGTATTTAT [XGTACX_site8005] | 10.9 ± 0.38 |
| AGTGGGATTTTTAATTGTACATAAATAATATCATAA [XGTACX_site4163] | 11.1 ± 0.69 |
| CATGTTATATATATATGTACTAAAAATATAATATAA [XGTACX_site1978] | 11 ± 0.6 |
| TTTTTTTTTTTTGGTAGTACATAAATATTTTATGGA [XGTACX_site6851] | 12 ± 1.7 |
| ACGTTGCGACGCAAGGTGCTTATTTTCTTATAAATA | 9.765 ± 0.035 |
| AAAAAAAAAAAGATAAATACAAGTTACACAAAAAAA [GTGCAC_negctrl_site664] | 9.9 ± 0.057 |
| GCTCATTGAAATTATACACACCAAATATATAAATAT [CACACA_site5385] | 10.1 ± 0.23 |
| TGTGAATATATCTTTAAAAAGGATAAATAATAATTT [CACACA_negctrl_site507] | 9.7 ± 0.16 |
| AACAAATTTTTTATTAAACACACAAACATATATATA [CACACA_site8588] | 9.925 ± 0.035 |
| TATGAATATTGCATGTGTACCTATTATCCTTTTAAA [XGTACX_site4311] | 11.1 ± 0.7 |
| TTTTTGTATCCTTTTAATATTAAATAAAAGGAATGT [CACACA_negctrl_site1468] | 10.2 ± 0.24 |
| TTAATGTTTGAAAGAGTGCACATAACAAAAAAAAAA [GTGCAC_site9623] | 10.4 ± 0.21 |
| TAATTAAAAAATGAATAAATGAATAAATAAATAAAT [CACACA_negctrl_site838] | 9.49 ± 0.22 |
| ATATAAAATAAAAAAAAAAAAAAAAAAAAAAAAAAA [CACACA_negctrl_site1234] | 9.56 ± 0.099 |
| AATGATCAGATATACACACACACAAAAAAAAAAAAA [CACACA_site7806] | 9.96 ± 0.26 |
| AATAAAAAAAAATTCACACAAAGTTAGATTAACTAT [CACACA_site4224] | 9.63 ± 0.099 |

| Sequence | gcPBM binding intensity (ln) |
| --- | --- |
| GTAAATAAATAAATAAATAAATATATATATATATAT [CACACA_negctrl_site1737] | 9.88 ± 0.47 |
| AAGACAAATATGAAGAGTACATTTATATAAAAATTA [XGTACX_site5142] | 11 ± 0.67 |
| CTACAATATCTTTAAAGTACTTTTATATAACTACCA [XGTACX_site6119] | 11.1 ± 0.61 |
| AAAACAAACAGACACACACACATATTTATATTTATA [CACACA_site7681] | 10 ± 0.17 |
| TTATATTAAACAAACACACACATATAAATATAAATA [CACACA_site7174] | 10.05 ± 0.021 |
| TTTATATTTAAAAGGATGCACTACAAATTCTAAATA | 10.3 ± 0.3 |
| TATCCTTATATTTGCACACACACACCCTAAAATGAA [CACACA_site1029] | 10.3 ± 0.38 |
| ATATATATATAATGAAGTACGAAAAAATAAGAAATG [XGTACX_site4001] | 10.9 ± 0.55 |
| ACCTCATAATATTTAACACACAAAATTATATGTATG [CACACA_site1704] | 9.9 ± 0.014 |
| ATTCTAAATAAATGTACACACAAAAATAAATGTATA [CACACA_site1732] | 11.4 ± 0.91 |
| ATATATTTTTATGTAGTGCATTTAAATAATAAATGC | 10.2 ± 0.3 |
| ATTTTTTCCAATTCTTTACCTTAGAAAGGTGTTCAA [CACACA_negctrl_site1401] | 10.1 |
| ATTAGAAAATAAAATAATAAATAAAATAAAAAAAAA [CACACA_negctrl_site409] | 9.595 ± 0.078 |
| ATAAAAACATAAAAATGTACATATATATATATATAT [XGTACX_site7165] | 11 ± 0.58 |
| TAATTTTATATAAATTGTACAAAAATATTTTATTAA [XGTACX_site7166] | 10.8 ± 0.42 |
| TAAAATATACAAATTTGTACATATATATGTATGTAT [XGTACX_site1127] | 10.9 ± 0.38 |
| TGCAGGTGTTATTCACGTACGCATTTGATTAAAAAA [XGTACX_site7743] | 11.1 ± 0.76 |
| AAGGAATATGTATATACACACAGGTACATATTTATA [CACACA_site6344] | 11.1 ± 0.67 |
